# Measurements reported in publication PMC4336329 (PLoS ONE, 2015).
# In all, about 310,000 compounds went through this assay and about 14,000 (4.5%) showed an effect of 50% or more. Effects have a minus sign here. The list shows a part of the results.
# Molecular target: human ether-à-go-go-related gene (hERG) potassium channel (human, UniProt Q12809)
# Experiment: primary screen, population patch clamp on CHO cells stably expressing hERG
# 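Further: peak tail current of the secondary pulse compared with the same well before compound.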
# Chain of human ether-à-go-go-related gene (hERG) potassium channel (Q12809 whole entry, looked up): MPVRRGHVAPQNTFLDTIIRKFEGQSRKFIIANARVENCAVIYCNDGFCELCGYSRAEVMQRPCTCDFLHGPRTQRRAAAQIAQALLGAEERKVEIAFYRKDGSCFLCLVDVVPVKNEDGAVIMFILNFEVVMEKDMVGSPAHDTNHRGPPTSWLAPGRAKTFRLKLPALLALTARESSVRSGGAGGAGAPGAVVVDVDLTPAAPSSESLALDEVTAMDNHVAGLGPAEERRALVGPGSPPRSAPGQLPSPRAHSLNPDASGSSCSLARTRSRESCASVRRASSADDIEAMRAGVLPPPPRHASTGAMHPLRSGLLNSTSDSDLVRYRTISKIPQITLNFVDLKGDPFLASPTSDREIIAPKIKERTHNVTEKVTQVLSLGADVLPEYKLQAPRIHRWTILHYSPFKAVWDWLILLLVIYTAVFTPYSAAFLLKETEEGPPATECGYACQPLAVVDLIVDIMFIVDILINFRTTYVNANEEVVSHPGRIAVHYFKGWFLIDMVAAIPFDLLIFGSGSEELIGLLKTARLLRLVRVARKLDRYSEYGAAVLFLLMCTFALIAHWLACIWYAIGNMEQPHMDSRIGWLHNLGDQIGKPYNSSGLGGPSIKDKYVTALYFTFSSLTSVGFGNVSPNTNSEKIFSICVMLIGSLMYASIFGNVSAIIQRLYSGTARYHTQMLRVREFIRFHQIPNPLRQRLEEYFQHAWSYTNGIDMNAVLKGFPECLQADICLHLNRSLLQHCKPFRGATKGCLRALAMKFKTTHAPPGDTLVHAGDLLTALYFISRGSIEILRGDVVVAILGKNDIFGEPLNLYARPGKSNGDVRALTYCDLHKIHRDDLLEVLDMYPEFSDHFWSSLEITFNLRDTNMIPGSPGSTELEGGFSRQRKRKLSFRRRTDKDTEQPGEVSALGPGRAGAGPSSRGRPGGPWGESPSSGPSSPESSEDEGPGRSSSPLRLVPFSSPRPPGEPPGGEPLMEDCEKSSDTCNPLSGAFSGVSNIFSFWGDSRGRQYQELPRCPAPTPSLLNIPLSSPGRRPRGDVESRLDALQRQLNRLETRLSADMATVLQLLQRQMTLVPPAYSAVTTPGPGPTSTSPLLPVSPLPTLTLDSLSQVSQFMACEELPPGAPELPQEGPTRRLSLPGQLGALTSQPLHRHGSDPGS
row,Structure (SMILES),"hERG current change (%, negative = inhibition) at 10uM [%]"
1,Cc1nn(-c2ccccc2)nc1C(=O)Nc1ccc2[nH]ncc2c1,6.02
2,Cc1ccc(S(=O)(=O)NCC2COc3ccccc3O2)cc1 (stereo not shown),-5.09
3,CCC1(c2ccc(F)cc2)NC(=O)N(CC(=O)Nc2ccc(-c3nc4ccc(C)cc4s3)cc2)C1=O (stereo not shown),2.11
4,CCN(CC)c1ccc(/C=C(/C#N)c2nc3ccccc3[nH]2)c(OC(C)C)c1,-2.56
5,COc1ccc(CCNC(=O)C2CCN(S(=O)(=O)N3CCC4(CC3)OCCO4)CC2)cc1OC,1.93
6,CC(=O)c1c(C)[nH]c(C(=O)COC(=O)CCSc2ccccc2)c1C,23
7,Cc1cccc(Nc2nc3ccccc3s2)c1C,-0.166
8,Cc1cc(NS(C)(=O)=O)c(=O)n(Cc2c(F)cccc2Cl)c1,8.86
9,C#CCCOC(=O)N1C2=NC(C(=O)OC)=C(C(=O)OC)[C@@H]3Nc4ccccc4[C@]23C[C@H]1C(=O)OC,1.33
10,COC(=O)c1ccc(NC(C(=O)OC)C(C)C)c([N+](=O)[O-])c1 (stereo not shown),-6.89
11,CC(=O)C1=C(C)OC(N)=C(C#N)C1c1cccnc1 (stereo not shown),-12.2
12,O=C(COC(=O)c1cc(=O)[nH]c2ccccc12)NC1CCCC1,-11.8
13,Cn1c(=O)oc2cc(S(=O)(=O)Nc3cccc4c3CCCC4)ccc21,-4.53
14,COc1ccc(S(=O)(=O)Nc2c(C)c(C)cc3c2ncn3C)cc1,10.8
15,Cc1ccc(C)c(CN2C(=O)CSc3ccc(C(=O)NCCN4CCOCC4)cc32)c1,14.6
16,O=S(=O)(NCCC1=CCCCC1)c1ccc(OC(F)(F)F)cc1,-25.3
17,CCC(C)Sc1nnc(NC(=O)C2CCN(C(=O)c3ccco3)CC2)s1 (stereo not shown),-57.2
18,CCc1ccc(N2CC(C(=O)Nc3ccc(C)c(S(=O)(=O)N4CCOCC4)c3)CC2=O)cc1 (stereo not shown),-34.6
19,O=C(N[C@@H](Cc1ccccc1)C(=O)Nc1ccc(F)cc1)C1CCNCC1,12.5
20,O=C(c1ccc2oc(CCc3ccccc3)nc2c1)N1CC[C@H](O)C1,14.7
21,COc1ccc(N(CC(=O)Nc2ccccc2OC)S(=O)(=O)c2ccccc2)cc1Cl,7.49
22,Cc1c(C)n(Cc2ccccc2)c2ccc(C(=O)NCCN3CCOCC3)cc12,-3.43
23,O=C(NC(CC(=O)N1CCN(c2ccccc2O)CC1)c1ccccc1)c1ccccc1Cl (stereo not shown),-70.6

row,Structure (SMILES),"hERG current change (%, negative = inhibition) at 10uM [%]"
1,Cc1ccc2c(CC(=O)N3CCOCC3)coc2c1,8.58
2,Cc1cccc(CCN=c2c([N+](=O)[O-])nn(-c3ccccc3)n2O)c1,-15.5
3,O=C1SCCC1NC(=O)C(c1ccccc1)c1ccccc1 (stereo not shown),3.15
4,Cc1ccccc1NS(=O)(=O)c1c(C(=O)N2CCCCCC2)c(C)n(C)c1C,-20.7
5,COc1cccc(NC(=O)CN(C)C(=O)CNC(=O)c2ccc3ccccc3c2)c1,-10.2
6,CCOC(=O)N1CCN(Cc2nc(-c3ccccc3)no2)CC1,2
7,O=C(c1cn(Cc2ccccc2)nc1-c1ccc(Cl)cc1)N1CCN(c2ccccn2)CC1,-26.4
8,O=S(=O)(Nc1ccc(-n2cnnn2)cc1)c1cccs1,6.07
9,CC(COS(N)(=O)=O)Cc1ccc(C(F)(F)F)cc1 (stereo not shown),-1.35
10,Cc1c(C(=O)NC(C)C)oc2c1-c1[nH]ncc1CC2,8.11
11,CC(C)N1CCN(Cc2nc3ccccc3s2)CC1CCO (stereo not shown),-37.6
12,COc1ccccc1/C=C1\C(=O)NC(=S)N(c2ccccc2)C1=O,22.4
13,Cc1ccccc1NC(=O)CSc1nnc2ccc(-c3ccncc3)nn12,-69.5
14,O=C(Nc1cccc(NC(=O)C2CCCO2)c1)C1CCCO1 (stereo not shown),5.42
15,CCn1c(CSCc2ccc(C)cc2)n[nH]c1=S,23
16,Cc1onc(-c2c(F)cccc2Cl)c1C(=O)Nc1cccc(S(=O)(=O)NC2=NCCC2)c1,-6.81
17,CC1C/C(=N/N=C2/NC(=O)CS2)CC(C)(C)C1 (stereo not shown),-6.47
18,O=C(Nc1ccc(Br)cc1C(=O)O)c1ccc2c(c1)C(=O)N(Cc1ccccc1)C2=O,7.86
19,COc1cc(CNCCNC(=O)c2cccs2)cc(OC)c1OC,2.62
20,Cc1cc([N+](=O)[O-])nn1CC(=O)NCCCN1CCOCC1,-1.72
21,CCCCN(CC)S(=O)(=O)c1c(C)[nH]c(=O)[nH]c1=O,19
22,Cc1ccc(-c2n[nH]c(=S)n2/N=C/c2ccc(C(=O)O)cc2)cc1,3.02
23,NC(=O)Cn1nc([N+](=O)[O-])nc1Oc1ccccc1F,17

row,Structure (SMILES),"hERG current change (%, negative = inhibition) at 10uM [%]"
1,Cc1ccc(S(=O)(=O)N2CCOCCOCCOCCOCCOCC2)cc1,-5.65
2,COc1ccc2nc(SCC(C)=O)c(C#N)cc2c1,14.7
3,CC(C)OCCCn1c(NN)nc2ccccc2c1=O,8.08
4,CCOC(=O)N1CCN(C(=O)c2cc3cc(F)ccc3[nH]2)CC1,-19.8
5,CCOC(=O)c1ccc2[nH]c(C)cc(=O)c2c1,5.02
6,O=C(Nc1cccnc1)c1ccc(Cl)c(S(=O)(=O)N2CCCC2)c1,11.2
7,Cc1[nH]c(=O)[nH]c(=O)c1S(=O)(=O)N1CCCC(C(=O)NCc2ccco2)C1 (stereo not shown),-13.8
8,C=CCn1c(C)cc(C(=O)COC(=O)/C=C/c2c(C)nn(C3CCS(=O)(=O)C3)c2Cl)c1C (stereo not shown),4.62
9,CCCCN(C)/C=N/c1c(C#N)cnn1-c1ccc(C)cc1,-27.9
10,Cc1ccc(S(=O)(=O)NCCNC(=O)C2CCCNC2=O)cc1 (stereo not shown),5.93
11,CCOc1ccc(CCNC(=O)Cn2ncn3nc(-c4ccc(OC)cc4)cc3c2=O)cc1,-9.95
12,CC(C)(C)c1ccc(OCC(O)CSc2ncn[nH]2)cc1 (stereo not shown),3.45
13,OCCCNc1nnc(-c2ccccc2)c2ccccc12,2.95
14,CC(C)(C)OC(=O)N1CCC(C(=O)NCC2CCCO2)CC1 (stereo not shown),16.5
15,CCS(=O)(=O)N1CCC(c2nc(-c3ccc(C)cc3)no2)CC1,-11.2
16,C=CCNC(=O)C(=O)NCC1CCCN1S(=O)(=O)c1cccs1 (stereo not shown),-1.92
17,CNc1csc(C)c(C)c1=O,21.7
18,O=C1CN(C(=O)c2ccc(Br)o2)C(c2ccccc2)c2cc(Br)ccc2N1 (stereo not shown),-23.6
19,CCc1ccc(-n2c(Cc3ccccc3)n[nH]c2=S)cc1,27.3
20,Cc1ccc(NC(=S)Nc2cccc3ccccc23)cc1F,-1.2
21,CCn1c(=O)c2c(n3cnnc13)-c1ccccc1CC21CCCCC1,16.2
22,COC(=O)C1=C(c2ccc(OC(F)(F)F)cc2)C[C@@H]2CC[C@H]1N2C(=O)NCCOc1ccccc1Cl,3.24
23,Cl.OCCN1CCN(c2nc(NCc3ccco3)c3ccccc3n2)CC1,-75.3

row,Structure (SMILES),"hERG current change (%, negative = inhibition) at 10uM [%]"
1,Cc1ccc(C)c(NC(=S)N(CCN(C)C)C(C)c2ccccn2)c1 (stereo not shown),-23.5
2,COc1ccc(-c2cc(C(=O)NCC3CCCO3)c3ccccc3n2)c(OC)c1 (stereo not shown),-0.667
3,Cc1cccc(NC(=O)C2C(c3ccccc3)C2(Cl)Cl)c1 (stereo not shown),-5.35
4,CC12CCC(C(=O)N(c3cccc(Cl)c3)C1=O)C2(C)C (stereo not shown),-4.23
5,Cn1c(=O)c(=O)n(C)c2cc(S(=O)(=O)N3CCOc4ccccc43)ccc21,-12.6
6,Cc1c(C(=O)Nc2ccc(N3CCOCC3)cc2)oc2ccccc12,4.53
7,Cc1ccc(/C=N/Nc2nc(C)cc(C)n2)cc1,-4.25
8,COc1cccc(N(CC(=O)NC2CCCCCC2)S(=O)(=O)c2ccccc2)c1,14.6
9,CCOc1cc(C(F)(F)F)cnc1/C(N)=N/O,16.8
10,O=C(CSc1ccc2nnc(-c3cccc(F)c3)n2n1)NCc1ccco1,-65.5
11,CCN(CC)CC(C)(C)NS(=O)(=O)c1ccc(Cl)cc1,-0.261
12,CCc1c(C2(O)CCCCC2)[nH]c2ncccc12,-4.04
13,COc1ccc(N(Cc2cc3ccc(C)cc3[nH]c2=O)C(=O)C2CCCO2)cc1 (stereo not shown),4.69
14,CCCCCC[n+]1c(-c2ccccc2)csc1Nc1ccccc1.[Br-],-5.77
15,COc1cc(OC)cc(C(=O)N2CCN(C(=O)c3ccc(OC)c(OC)c3)CC2)c1,-14
16,COc1ccc(OC(C)C(=O)N(C)Cc2nc(-c3ccc(OC)cc3)no2)cc1 (stereo not shown),-37.7
17,CCOC(=O)CCc1c(C)n(CC)c2ncnn2c1=O,9.93
18,COc1ccc(NC(=O)c2cccc3ccccc23)cc1,-4.94
19,COc1ccc(CC(=O)Nc2ccc(S(=O)(=O)Nc3nccs3)cc2)cc1,8.73
20,CC1C2CC(C/C2=N/NC(=O)c2cccs2)C1(C)C (stereo not shown),-4.4
21,CC(C)NC(=O)c1n[nH]c(=O)c2ccccc12,2.4
22,CCOc1ccc(NC(=O)C2CCCN2S(=O)(=O)c2ccc(OCC)cc2)cc1 (stereo not shown),-14.3
